Hit rate of the full screen: of about 340,000 compounds, about 6,900 (2%) were called active. Rule as the data show it: active = inhibition above about 30%; inactive = below that, where a call was filed. This is a selection; strong and weak results do not stand in their true shares. The source gives no active or inactive call for entries shown without one.
Target: D(2) dopamine receptor (Homo sapiens) (UniProt P14416)
Test: HTS Assay for Allosteric Antagonists of the Human D2 Dopamine Receptor: Primary Screen for Antagonists; also: 0% is about no effect
Settings: HEK293 TREx D2 cells, calcium flux, dopamine EC80; at 10 µM; stronger effect = higher value
Procedure, shortened: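 Tetracycline-induced HEK293 T-REx cells expressing D2 force-coupled to calcium signalling were dye-loaded, exposed to compound for 180 s, then challenged with an EC80 of dopamine; calcium flux was followed kinetically for a further 180 s.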

UniProt P14416, sequence (P14416 whole entry, looked up): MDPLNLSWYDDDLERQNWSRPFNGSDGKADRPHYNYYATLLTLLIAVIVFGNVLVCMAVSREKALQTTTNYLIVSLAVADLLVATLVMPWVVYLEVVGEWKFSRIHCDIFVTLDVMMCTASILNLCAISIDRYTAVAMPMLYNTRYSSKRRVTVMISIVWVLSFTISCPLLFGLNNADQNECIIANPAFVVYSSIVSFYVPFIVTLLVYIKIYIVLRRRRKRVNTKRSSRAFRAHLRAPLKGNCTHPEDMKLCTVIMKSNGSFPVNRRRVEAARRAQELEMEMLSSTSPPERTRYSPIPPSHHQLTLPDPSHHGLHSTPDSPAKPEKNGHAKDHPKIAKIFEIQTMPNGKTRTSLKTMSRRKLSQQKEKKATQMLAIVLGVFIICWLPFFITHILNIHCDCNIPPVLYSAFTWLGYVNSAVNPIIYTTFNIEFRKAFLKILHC

Structure (SMILES) | inhibition
N=c1c(C(=O)NCc2ccco2)cc2c(=O)n3ccccc3nc2n1Cc1ccccc1 | active: 37.8%
O=C(CSc1nncn2c1cc1sccc12)Nc1ccccc1C(F)(F)F | 5.59%
O=C(NCCC1=CCCCC1)c1ccc2c(c1)N(Cc1ccc(F)cc1)C(=O)c1ccccc1S2(=O)=O | -20.6%
Cc1c(NC(=O)c2cc(-c3cccc(Cl)c3)on2)c(=O)n(-c2ccccc2)n1C | 9.19%
COc1ccc2nc3sc(C(=O)Nc4cc(Cl)c(OC)cc4OC)cc3cc2c1 | -15.2%
CCN1CCN(Cc2c(O)ccc3c(=O)c(Oc4ccccc4Cl)c(C(F)(F)F)oc23)CC1 | 17.1%
CCOC(=O)c1c(C)oc2nc(C)nc(NCc3ccc(C)cc3)c12 | 0.94%
Cc1cccc(NC(=S)NC2CC3CCC(C2)N3Cc2ccco2)c1 (stereo not given) | active: 38.8%
CCOCCCn1c(=N)c(C(=O)NCc2ccco2)cc2c(=O)n3ccccc3nc21 | -19.2%
COCCCNc1nc2c(-c3ccccc3)nnn2c2ccccc12 | -13.1%
Cn1c(CCN2CCN(c3ccccn3)CC2)nc2cc(NC(=O)COc3ccc(Cl)cc3)ccc21 | active: 37.5%
CC(C)NC(=O)c1ccc(Cn2c(=O)c3cccn3c3cccnc32)cc1 | -1.88%
COc1ccccc1C1CCN(Cc2cccc([N+](=O)[O-])c2)CC1 | active: 110%
COc1ccc(CC(=O)NC2CC(=O)N(c3ccc4c(c3)OCCO4)C2)cc1 (stereo not given) | 4.36%
Nc1c(C(=O)Nc2cccc(Cl)c2)sc2nc3c(cc12)CN(Cc1ccccc1)CC3 | 2.02%
CCOCCCn1c(=N)c(S(=O)(=O)c2ccc(C)cc2)cc2c(=O)n3ccccc3nc21 | -6.42%
CCOC(=O)c1c(NC(=O)C(C)Sc2cn(CCNC(=O)c3ccc(OC)c(OC)c3)c3ccccc23)sc2c1CCC2 (stereo not given) | 9.41%
CCn1cc(C(=O)NCc2ccccc2)c(=O)c2cc(S(=O)(=O)N3CCCCC3)ccc21 | -4.76%
Cc1ccc(NS(=O)(=O)c2ccc3c4c(cccc24)C(=O)N3)c(C)c1 | 0.721%
Cc1cccc(-c2nc3c4ccccc4nc(NCc4ccccc4Cl)n3n2)c1 | -9.98%

Structure (SMILES) | inhibition
Cc1ccc(C(NC(=O)Cc2cccs2)C(=O)Nc2ccc(C(C)C)cc2)cc1 (stereo not given) | 3.65%
Cc1cc(Nc2cccc(C(F)(F)F)c2)ncn1 | -15.8%
O=C(COc1ccccc1)N(Cc1cccnc1)c1nc2ccc(Cl)cc2s1 | 18.4%
O=C(Nc1ccc(N2CCC(N3CCCCC3)CC2)c(C(=O)O)c1)c1ccccc1 | 11%
CNS(=O)(=O)c1cn(CC(=O)N2CCN(c3ccc(OC)cc3)CC2)cc1S(=O)(=O)NC | 7.41%
Cc1cc(C)cc(NC(=O)CN2C(=O)COc3ccc(S(=O)(=O)Nc4ccccc4)cc32)c1 | -3.56%
Cc1cn(C)c(CC(=O)NCc2ccc(F)cc2)c1C(=O)O | -10.1%
COc1ccc2c(c1)c1c(c(=O)n(-c3cccc(C)c3)c(=O)n1CC(=O)Nc1c(C)cc(C)cc1C)n2C | -4.46%
C=CCn1c(O)c(N=NC(=S)Nc2ccccc2F)c2ccccc21 | active: 68.3%
CCN1CCN(Cc2c(O)ccc3oc(C)c(C(=O)Nc4ccc(OC)c(Cl)c4)c23)CC1 | -5.46%
CCOC(=O)c1ccccc1NC(=O)CSc1nc2ncccc2o1 | 8.24%
CC1=C(c2ccc(C)cc2)S(=O)(=O)N=C1N1CCN(c2ccccc2)CC1 | -0.0404%
Cc1ccc2nc(-c3ccncc3)c(Nc3ccccc3C)n2c1 | 6.44%
OCCNCCOCCOc1ccccc1-c1ccccc1 | active: 33.1%
Cc1ccc(CSC2=Nc3ccccc3C3=NC(CC(=O)NC4CCCCC4)C(=O)N23)c(C)c1 (stereo not given) | 8.86%
CCC(C)NC(=O)c1cn(CC)c2ccc(S(=O)(=O)N3CCCCC3)cc2c1=O (stereo not given) | 9.2%
c1ccc(COc2ccc(CN3CCN(c4ccccn4)CC3)cc2)cc1 | active: 75.5%
CSCCC(NS(=O)(=O)c1ccc2c(c1)oc(=O)n2C)C(=O)N1CCN(c2cc(Cl)ccc2C)CC1 (stereo not given) | 9.82%
CCN(CCCNC(=O)c1cc2cc3cc(OC)ccc3nc2s1)c1cccc(C)c1 | 7.28%
CCC(=O)Oc1c(Sc2ccc(Cl)cc2)c(C)nn1C(C)(C)C | -3.04%

Structure (SMILES) | inhibition
Cc1cc2c(cc3c(SCc4ccc(Cl)cc4)nnc(C)n32)o1 | -11.7%
Cc1cccc(N2CCN(C(=O)c3nn(C)c4c3CSc3ccccc3-4)CC2C)c1 (stereo not given) | -17.8%
C=CCN(c1ccccc1)S(=O)(=O)c1cccc(C(=O)NCC(c2ccc(OC)cc2)N2CCCCC2)c1 (stereo not given) | active: 54.7%
COc1cccc(CNC(=O)CN2C(=O)CSc3ccc(S(=O)(=O)N(C)C)cc32)c1 | -6.32%
Cc1ccc(-c2nc3sccn3c2Nc2ccccc2C)cc1 | -8.78%
CC1CCN(C(=O)c2cnn(-c3ccc(Cl)cc3)c2C2CCN(C(=O)OC(C)(C)C)CC2)CC1 | 3.78%
Cc1c(C(=O)OC2CCCC2)[nH]c2c1C(=O)CC(c1ccc(C(C)(C)C)cc1)C2 (stereo not given) | 1.99%
CC(C)(C)C1CCc2c(sc(NC(=O)c3cccc(Cl)c3)c2C(N)=O)C1 (stereo not given) | -6.8%
COc1ccccc1-c1cc(NC(=O)COc2ccccc2Cl)n(-c2ccccc2)n1 | -7.87%
Cc1ccc(-c2[nH]c3ccccc3c2SCCNC(=O)c2ccc(S(=O)(=O)N3CCOCC3)cc2)cc1 | -1.18%
Cc1cccc2c1-c1sc(C(=O)NCCc3ccc(Cl)cc3)cc1CO2 | 5.66%
Cc1ccccc1OCCSc1nc(C)c(Cc2ccccc2)c(=O)[nH]1 | 8.06%
COc1ccc(-c2nn(C)c3sc(C(=O)N4CCN(c5ccccc5F)CC4)cc23)cc1OC | -21.3%
Oc1ccc(CN2CCc3ccccc3C2)c2cccnc12 | active: 65.2%
COc1cccc(CNC(=O)C(C)n2ccc3cc(S(=O)(=O)N4CCCCCC4)ccc32)c1 (stereo not given) | -6.69%
Cc1ccc(S(=O)(=O)N(CC(O)CN2C(=O)NC(C)(C)C2=O)c2cccc([N+](=O)[O-])c2)cc1 (stereo not given) | active: 30.4%
CCN(C(=O)C1CCN(S(=O)(=O)c2ccc3c(c2)oc(=O)n3C)CC1)c1cccc(C)c1 | active: 38.9%
Cc1ccc(C)c(NC(=O)C2CCN(c3nn4c(=O)cc(C)nc4s3)CC2)c1 | 7%
CCN1CCN(Cc2nc3cc(NC(=O)c4ccccc4[N+](=O)[O-])ccc3n2CC)CC1 | 4.52%
O=C(Nc1cccc(F)c1)c1ccc2c(c1)OCO2 | active: 30.8%
